In all, about 33,000 sequences were measured (“E-score (-0.5 to 0.5)”: median about -0.016, highest 2% from about 0.32 on). The list shows a part of the results.
molecular target: T1, Stp1 (UniProt B3LFK1); test: PBM E-score (8-mer binding enrichment) (E-score (-0.5 to 0.5)); higher = stronger / more preferred TF binding; most listed sequences are background and not binding sites; conditions: protein concentration: 200 nM; construct: GST-full length
T1 sequence: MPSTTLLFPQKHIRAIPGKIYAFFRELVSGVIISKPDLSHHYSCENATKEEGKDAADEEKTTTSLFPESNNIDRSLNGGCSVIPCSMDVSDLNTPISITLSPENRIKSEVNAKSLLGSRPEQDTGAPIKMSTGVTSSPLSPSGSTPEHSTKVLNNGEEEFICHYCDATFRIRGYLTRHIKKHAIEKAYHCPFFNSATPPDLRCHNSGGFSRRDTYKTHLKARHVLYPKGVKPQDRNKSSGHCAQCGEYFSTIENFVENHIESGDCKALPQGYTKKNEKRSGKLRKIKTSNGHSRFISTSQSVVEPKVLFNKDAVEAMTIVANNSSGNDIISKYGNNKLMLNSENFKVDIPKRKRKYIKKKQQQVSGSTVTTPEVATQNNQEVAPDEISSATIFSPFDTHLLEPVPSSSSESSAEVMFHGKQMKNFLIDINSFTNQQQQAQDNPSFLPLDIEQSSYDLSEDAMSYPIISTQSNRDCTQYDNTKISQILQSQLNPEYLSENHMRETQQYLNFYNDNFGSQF
In short: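 Detection of bound protein used fluorescent anti-GST, with scans normalised by masliner. The proteins were GST-tagged yeast transcription factors applied at about 100-200 nM to universal all-10-mer Agilent arrays made double-stranded by primer extension. Each ungapped eight-base word, pooled with its reverse complement, was scored with an E-score from the Universal PBM Analysis Suite.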

Sequence | PBM E-score
AGCCCTAA | 0.034
CGACTATA | -0.175
GAGGTGCA | 0.0251
AAACGTGG | -0.0726
AGAGAAAT | 0.178
CGTTCCTA | 0.0272
AAATGAAT | -0.0333
AGATAATA | 0.115
AAAGCGCC | 0.302
ATCTCACC | 0.0145
ACCTTGAC | -0.244
ACATCCTC | -0.16
CTCTTGCA | -0.148
TAATGGCA | 0.18
TTGGCAAA | 0.264
ACCATGAT | -0.266
CTAGTCAA | -0.199
CGGCCAAG | 0.098
GGGTAGAC | -0.269
CCGAATCC | 0.0112
CCGATGAG | -0.0793
CCATTGCC | 0.0367
CTGTATTC | 0.0866
GCTCAAGA | -0.152
GGTGTGTA | -0.214

Sequence | PBM E-score
CTCCGCGA | -0.0489
AGTCTCCA | -0.275
CGCTCGCC | 0.239
ACAGTGCT | -0.0113
ATCTCAAT | 0.0218
CAGGACGG | -0.0616
ACGCTAAT | -0.176
TAACCTTA | -0.0457
CGTGTTCA | 0.0832
GGTGGTGA | -0.125
AATATACA | 0.175
ACGAACTC | 0.117
ATATGTCG | 0.118
ATTTAAAC | 0.0433
AGTCACTG | -0.0867
CTCCTTAA | -0.0225
GGCTGGAC | -0.0567
ACATAAGG | 0.0917
CCTCTGGA | -0.21
GCCTGTCA | -0.0812
ATCGGAAT | 0.135
CACGCGAC | -0.12
AGGAACCG | -0.0597
CGCGCATA | 0.133
GGACGGTA | -0.221

Sequence | PBM E-score
AGGACGAT | -0.0289
ATCCGACG | 0.0697
AGAGCGCT | -0.218
GGTTACTA | -0.125
AACACATC | -0.00391
CACATAAC | 0.0275
AGTTGAAG | -0.212
CCGCAGCC | 0.148
AAGCAACC | -0.0666
ACACCCTA | -0.155
AACTGACG | -0.0413
CCGTTCGC | 0.226
AAGAGATT | -0.00321
TAAGGCTA | 0.0342
AAGCAATG | 0.115
GCGACGAA | 0.0964
ACGTAAAA | 0.219
CCTTTAAA | 0.0143
GGAGATAA | -0.0256
ATAGTGCC | 0.311
CCCTTGTC | -0.0524
CCGCACGC | 0.323
ACCTTACA | -0.0495
ACGCCTGC | -0.0286
GCATCCGC | -0.0715

Sequence | PBM E-score
ACTTTAAG | -0.012
CCTTTTGC | 0.214
ACACGCAG | -0.159
GGGATAAA | 0.122
GCAACTGA | 0.15
GTCGGAAC | -0.16
GCTCAGAA | 0.00512
GGTCAAAC | 0.121
CCCTCGCA | -0.177
AGGATCCC | -0.132
GCTCCTAA | -0.0873
AATTCCAA | 0.0947
CGGCGTAA | 0.39
CTCATACA | 0.102
CTTCCAGA | -0.0274
TATTAGGA | 0.0514
CCTCACTA | -0.0282
AAACAGAA | 0.0538
ATCGGCCC | -0.123
CGACAGCA | -0.0693
ATGGGTCG | -0.286
GACATGCA | -0.127
GTCGCATA | -0.0363
GCATGTGA | -0.059
GATCTCGA | -0.0356

Sequence | PBM E-score
ACTGGCAG | 0.0412
AGATACAG | 0.0795
ACCTGAGT | -0.234
AGGCCTTC | -0.188
CGACCTTC | -0.164
ATTTCATC | 0.172
GCGCGGGA | 0.163
GCGCCACC | 0.24
ATTAAGTG | 0.131
GGTTCAAA | 0.24
CGCACCAG | 0.281
AGAACCAG | -0.128
CGTATCCC | -0.128
CAGGAATC | 0.0334
TATAATGA | 0.142
GAAAAAGA | 0.0921
GCAAAAAA | 0.198
ATTCCGGA | 0.00668
GTTTTCTA | 0.139
ATAATCCG | -0.0502
AGTACTTC | 0.00091
GCCCTGTA | 0.118
ATCTGTGG | -0.118
GCAGCAGA | -0.0587
GCGTTACA | 0.156

Sequence | PBM E-score
CCTTTCAC | 0.0917
ATTGGCCG | 0.0762
GAGTTCTA | -0.163
ATGATTCG | 0.0526
CTACCTTA | -0.0359
TACAGGAA | 0.098
GTACGTCA | -0.0934
AGCGTGAT | -0.107
GCATATTA | 0.114
GCGTTTCC | 0.0723
AGTCGTAG | -0.161
CAGAGGAG | -0.261
CAACGCTC | -0.164
CCTTGGCC | -0.224
AGGCGAAG | 0.0567
CCGCCCAA | -0.21
GCGTTCCA | -0.0331
ATTTGCAG | 0.0524
CAGACGCC | 0.114
CATAAAAA | 0.245
CCTAAATC | 0.0381
GGATTCAA | 0.03
CAGCATAA | -0.0365
AAACATCG | -0.0386
AATTCTAA | 0.0821

Sequence | PBM E-score
CTTGTTGA | 0.0222
ACATTGCT | 0.0731
CGGTCCTA | -0.195
TGGGGAAA | -0.0661
ATAGGTTA | 0.0587
GAATACTA | 0.162
GACGTTCC | -0.166
AGTAGACT | -0.156
AACACCTT | 0.0156
TAGCCACA | 0.0256
TCTTCCAA | -0.132
GACGAGGC | 0.312
ACATTCTC | 0.115
ACCCAGAC | -0.156
CCTGTGAG | 0.00192
GAACCGGC | -0.0191
CCTTATCA | 0.111
ACACCGCG | 0.0308
CACAGATG | -0.0326
GGTACACA | -0.0198
CTAGGTTC | -0.217
CGTGCGGA | 0.3
